Test results taken from PMC12040169 (PLOS Biology, 2025).
The list shows a part of the results.

Tested on: T1, C. trachomatis L2/434/Bu expressing GFP (CTL2-GFP)
T1 construct: L2/434/Bu GFP intracellular growth in HeLa cells
Set-up: species or system HeLa; C. trachomatis total inclusion area by high-content imaging, normalised to DMSO
Conditions: total inclusion area; 28.5 h, 10 µM; inhibitor
How it was run: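 Host cell viability was gauged from Hoechst-stained nuclei counts, while chlamydial growth was taken from total inclusion area and inclusion number per well. Cells were fixed and imaged by high-content microscopy once bulk GFP and resorufin fluorescence had been measured.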

SMILES | % of control remaining
O=C(Cn1cnc(-c2noc(-c3cccnc3)n2)c1)Nc1ccc(Cl)cc1 [CBK287822] | 117.741
CC(C)COc1ccccc1C(=O)NCCC(=O)O [CBK033507] | 51.0342
O=C(CCn1cccn1)N1CCC(c2cc3ncccc3[nH]2)CC1 [CBK284457] | 95.7087
N#C/C(=C/c1cn(CCC(N)=O)c2ccccc12)c1ccc2c(c1)OCO2 [CBK267319] | 104.506
CC(=O)N1Cc2ccccc2OC2(CCCN(C(=O)C3CC3)C2)C1 (stereo not shown) [CBK284991] | 105.656
O=C(CC(C(=O)O)N1CCOCC1)Nc1ccc(Cl)cc1 (stereo not shown) [CBK267086] | 120.425
Cc1nn(CC(=O)OC2CCCCC2)c(=O)c2cc3sccc3n12 [CBK284045] | 85.3149
CN(C)C(=O)c1cccc(-c2nccnc2NCc2cccc([N+](=O)[O-])c2)c1 [CBK036651] | 112.656
Cc1cccnc1NC(=S)NCc1ccco1 [CBK268907] | 89.5513
COC(=O)c1cccc2c3c([nH]c12)CCCC3 [CBK000423] | 89.0598
O=S(=O)(Cc1ccccc1)Nc1nccnc1-c1cccs1 [CBK050766] | 83.1742
O=C(O)CCCNS(=O)(=O)c1ccc(C2CCCCC2)cc1 [CBK299800] | 58.0567
CCCc1n[nH]c(Cc2c(Cl)cccc2Cl)c1C(=O)OCC [CBK113275] | 76.0804
CCOC(=O)C1CCN(S(=O)(=O)c2ccc(NC(=O)N3CCCC3)cc2)CC1 [CBK269823] | 88.657
Cc1ccc(C23CC4CC(CC(NC(=O)NC(Cc5ccccc5)C(=O)O)(C4)C2)C3)cc1 (stereo not shown) [CBK267423] | 94.9243
CC(C)c1ccc(N2C(=O)N[C@@H]3CCN(C(=O)COc4ccccc4)[C@@H]3C2=O)cc1 [CBK289288] | 102.051
O=C(O)CCC(=O)N1N=C2C(=Cc3ccc(F)cc3)CCCC2C1c1ccc(F)cc1 (stereo not shown) [CBK296066] | 106.396
COc1cc(CNc2cc(C(=O)O)ccc2C)cc(Br)c1OC [CBK269679] | 96.7858
COCc1nnc(NS(=O)(=O)c2ccc(C)cc2)s1 [CBK045523] | 109.614
CN1CCN(C(=O)c2ccc(-c3cnc(OCC4CCN(C(=O)OC(C)(C)C)CC4)nc3)cn2)CC1 [CBK170021] | 86.3274
O=C1N(C2CCCCC2)CC2C(c3ccccc3)ONC12O (stereo not shown) [CBK021700] | 37.3614
Cc1nn(Cc2nnc(-c3cccs3)o2)c(C)c1Br [CBK010809] | 80.5189
S=C(Cc1csc2ccccc12)NC1CCCCC1 [CBK023515] | 78.6192
CCc1nn(CC(=O)N(C)C)c(=O)c2cc3sccc3n12 [CBK284031] | 85.9605
Cc1ccc2c(c1)cc(C)c1nn(CC(=O)NC3CC3)c(=O)n12 [CBK283873] | 96.2508
O=C(Cc1cccs1)N1CCC(c2nnc(-c3ccccc3)c(-c3ccccc3)n2)CC1 [CBK286283] | 111.272

SMILES | % of control remaining
CCNc1nccnc1-c1cnc(OC)nc1OC [CBK088587] | 57.2616
O=C(Oc1ccc2c(c1)OCO2)c1cc(S(=O)(=O)N2CCOCC2)c(Cl)cc1Cl [CBK269709] | 93.9548
c1cnc(N2CCCC2)c(OC2CCNC2)n1 (stereo not shown) [CBK115284] | 120.759
O=C(Cc1ccc(Cl)cc1)Nc1cccc(C(=O)Nc2ccccc2C(=O)O)c1 [CBK264750] | 100.873
O=C(O)CCC(CCC(=O)O)C(=O)O [CBK260994] | 95.847
OCCCNc1cncc(-c2ccc(F)cc2F)n1 [CBK065851] | 134.188
CCCn1cc(CNC(=O)c2cccc(S(=O)(=O)N3CCCC3)c2)cn1 [CBK307095] | 15.9219
O=C(O)COc1cccc2nsnc12 [CBK019749] | 100.012
CCCS(=O)(=O)NC[C@H]1C[C@@H]2CCN1C[C@@H]2c1cc(-c2ccccc2)nn1C [CBK289095] | 109.387
Clc1ccc(-n2ncc3c(NCc4ccccc4)ncnc32)cc1 [CBK287355] | 91.8004
O=C(O)COc1ccc(C=C2C(=O)c3ccccc3C2=O)cc1Cl [CBK263857] | 117.071
COc1cc(F)cc(OC2CCNCC2)c1NC(=O)Cc1c[nH]c2ccccc12 [CBK050246T] | 86.0255
CCn1c(SCC(=O)O)nnc1-c1c[nH]c2ccccc12 [CBK287089] | 90.3596
O=C(O)c1sc2ncccc2c1NS(=O)(=O)c1cc(Cl)sc1Cl [CBK050650] | 104.822
Cc1ccc(Cc2cnc(NC(=O)NC3CCOC(C)(C)C3)s2)cc1F (stereo not shown) [CBK304139] | 78.4599
CCOC(=O)c1cnc2c(C)cc(C)cc2c1NCCCN(C)C [CBK266021] | 119.632
O=C(NCCn1nc(-c2ccco2)ccc1=O)C1CCCC1 [CBK283707] | 97.7033
CCC(=O)Nc1ccc(C(=O)N2CCN(c3ccccc3)CC2)cc1 [CBK307425] | 59.1423
O=C1c2ccccc2C(=O)N1CCOc1nccnc1-c1cnn(Cc2ccccc2)c1 [CBK107089] | 70.9423
COCCCn1c(CCC(=O)O)ccc1-c1ccc(F)cc1 [CBK267886] | 98.3461
Cc1ccc(-c2csc(NC(=O)c3ccccc3C(=O)O)n2)cc1 [CBK072083] | 109.013
C#CCNCCCOc1ccccc1Oc1ccccc1 [CBK017707C] | 89.8486
CSc1nsc(SCC(=O)Nc2ccc(OC(C)=O)cc2)n1 [CBK268948] | 94.4365
O=c1[nH]c(N2CCC3(CC2)OCCO3)nc2c(-c3ccccc3Cl)csc12 [CBK291128] | 76.7532
O=S(=O)(Nc1nccnc1N1CCN(c2cnccn2)CC1)c1ccc(Cl)cc1 [CBK049664] | 102.153
NNS(=O)(=O)c1ccc(Oc2ccc([N+](=O)[O-])cc2)cc1 [CBK261669] | 102.709
